Some of the results follow. Binding of human transcription factors and regulators to the viral nucleoprotein by AlphaScreen, crude cell-free proteins, amounts not normalised, one pass. Fold of the Venus control; higher = more signal. No active / inactive call. Single-pass screen; sequences are the whole Swiss-Prot entries looked up by name.

B1: NFE2L2, Q16236 (protein)
chain: MMDLELPPPGLPSQQDMDLIDILWRQDIDLGVSREVFDFSQRRKEYELEKQKKLEKERQEQLQKEQEKAFFAQLQLDEETGEFLPIQPAQHIQSETSGSANYSQVAHIPKSDALYFDDCMQLLAQTFPFVDDNEVSSATFQSLVPDIPGHIESPVFIATNQAQSPETSVAQVAPVDLDGMQQDIEQVWEELLSIPELQCLNIENDKLVETTMVPSPEAKLTEVDNYHFYSSIPSMEKEVGNCSPHFLNAFEDSFSSILSTEDPNQLTVNSLNSDATVNTDFGDEFYSAFIAEPSISNSMPSPATLSHSLSELLNGPIDVSDLSLCKAFNQNHPESTAEFNDSDSGISLNTSPSVASPEHSVESSSYGDTLLGLSDSEVEELDSAPGSVKQNGPKTPVHSSGDMVQPLSPSQGQSTHVHDAQCENTPEKELPVSPGHRKTPFTKDKHSSRLEAHLTRDELRAKALHIPFPVEKIINLPVVDFNEMMSKEQFNEAQLALIRDIRRRGKNKVAAQNCRKRKLENIVELEQDLDHLKDEKEKLLKEKGENDKSLHLLKKQLSTLYLEVFSMLRDEDGKPYSPSEYSLQQTRDGNVFLVPKSKKPDVKKN
B2: EN1, Q05925 (protein)
chain: MEEQQPEPKSQRDSALGAAAAATPGGLSLSLSPGASGSSGSGSDGDSVPVSPQPAPPSPPAAPCLPPLAHHPHLPPHPPPPPPQHLAAPAHQPQPAAQLHRTTNFFIDNILRPDFGCKKEQPPPQLLVAAAARGGAGGGGRVERDRGQTAAGRDPVHPLGTRAPGAASLLCAPDANCGPPDGSQPAAAGAGASKAGNPAAAAAAAAAAVAAAAAAAAAKPSDTGGGGSGGGAGSPGAQGTKYPEHGNPAILLMGSANGGPVVKTDSQQPLVWPAWVYCTRYSDRPSSGPRTRKLKKKKNEKEDKRPRTAFTAEQLQRLKAEFQANRYITEQRRQTLAQELSLNESQIKIWFQNKRAKIKKATGIKNGLALHLMAQGLYNHSTTTVQDKDESE
B3: ZGPAT, Q8N5A5 (protein)
chain: MDEESLESALQTYRAQLQQVELALGAGLDSSEQADLRQLQGDLKELIELTEASLVSVRKSSLLAALDEERPGRQEDAEYQAFREAITEAVEAPAAARGSGSETVPKAEAGPESAAGGQEEEEGEDEEELSGTKVSAPYYSSWGTLEYHNAMVVGTEEAEDGSAGVRVLYLYPTHKSLKPCPFFLEGKCRFKENCRFSHGQVVSLDELRPFQDPDLSSLQAGSACLAKHQDGLWHAARITDVDNGYYTVKFDSLLLREAVVEGDGILPPLRTEATESDSDSDGTGDSSYARVVGSDAVDSAQSSALCPSLAVVGSDAVDSGTCSSAFAGWEVHTRGIGSRLLTKMGYEFGKGLGRHAEGRVEPIHAVVLPRGKSLDQCVETLQKQTRVGKAGTNKPPRCRGRGARPGGRPAPRNVFDFLNEKLQGQAPGALEAGAAPAGRRSKDMYHASKSAKRALSLRLFQTEEKIERTQRDIRSIQEALARNAGRHSVASAQLQEKLAGAQRQLGQLRAQEAGLQQEQRKADTHKKMTEF
B4: ZNF577, Q9BSK1 (protein)
chain: MKNATIVMSVRREQGSSSGEGSLSFEDVAVGFTREEWQFLDQSQKVLYKEVMLENYINLVSIGYRGTKPDSLFKLEQGEPPGIAEGAAHSQICPGFVIQSRRYAGKDSDAFGGYGRSCLHIKRDKTLTGVKYHRCVKPSSPKSQLNDLQKICAGGKPHECSVCGRAFSRKAQLIQHQRTERGEKPHGCGECGKTFMRKIQLTEHQRTHTGEKPHECSECGKAFSRKSQLMVHQRTHTGEKPYRCSKCGKAFSRKCRLNRHQRSHTGEKLYGCSVCGKAFSQKAYLTAHQRLHTGDKPYKCSDCGRTFYFKSDLTRHQRIHTGEKPYECSECEKAFRSKSKLIQHQRTHTGERPYSCRECGKAFAHMSVLIKHEKTHIRETAINSLTVEKPSSRSHTSLYMSELIQEQKTVNTVPIEMPSSGTPPLLNKSERLVGRNVVIVEQPFPRNQAFVVNQEFEQRISLTNEVNVAPSVINYILYLTDIVSE
B5: TCF3, P15923 (protein)
chain: MNQPQRMAPVGTDKELSDLLDFSMMFPLPVTNGKGRPASLAGAQFGGSGLEDRPSSGSWGSGDQSSSSFDPSRTFSEGTHFTESHSSLSSSTFLGPGLGGKSGERGAYASFGRDAGVGGLTQAGFLSGELALNSPGPLSPSGMKGTSQYYPSYSGSSRRRAADGSLDTQPKKVRKVPPGLPSSVYPPSSGEDYGRDATAYPSAKTPSSTYPAPFYVADGSLHPSAELWSPPGQAGFGPMLGGGSSPLPLPPGSGPVGSSGSSSTFGGLHQHERMGYQLHGAEVNGGLPSASSFSSAPGATYGGVSSHTPPVSGADSLLGSRGTTAGSSGDALGKALASIYSPDHSSNNFSSSPSTPVGSPQGLAGTSQWPRAGAPGALSPSYDGGLHGLQSKIEDHLDEAIHVLRSHAVGTAGDMHTLLPGHGALASGFTGPMSLGGRHAGLVGGSHPEDGLAGSTSLMHNHAALPSQPGTLPDLSRPPDSYSGLGRAGATAAASEIKREEKEDEENTSAADHSEEEKKELKAPRARTSPDEDEDDLLPPEQKAEREKERRVANNARERLRVRDINEAFKELGRMCQLHLNSEKPQTKLLILHQAVSVILNLEQQVRERNLNPKAACLKRREEEKVSGVVGDPQMVLSAPHPGLSEAHNPAGHM
B6: ASCL3, Q9NQ33 (protein)
chain: MMDNRGNSSLPDKLPIFPDSARLPLTRSFYLEPMVTFHVHPEAPVSSPYSEELPRLPFPSDSLILGNYSEPCPFSFPMPYPNYRGCEYSYGPAFTRKRNERERQRVKCVNEGYAQLRHHLPEEYLEKRLSKVETLRAAIKYINYLQSLLYPDKAETKNNPGKVSSMIATTSHHADPMFRIV
B7: EBF4, Q9BQW3 (protein)
chain: MFPAQDALPRSGLNLKEEPLLPAGLGSVRSWMQGAGILDASTAAQSGVGLARAHFEKQPPSNLRKSNFFHFVLAMYDRQGQPVEVERTAFIDFVEKDREPGAEKTNNGIHYRLRLVYNNGLRTEQDLYVRLIDSMSKQAIIYEGQDKNPEMCRVLLTHEIMCSRCCDRKSCGNRNETPSDPVIIDRFFLKFFLKCNQNCLKNAGNPRDMRRFQVVVSTTVSVDGHVLAVSDNMFVHNNSKHGRRARRLDPSEAATPCIKAISPGEGWTTGGATVIVIGDNFFDGLQVVFGNVLVWSELITPHAIRVQTPPRHIPGVVEVTLSYKSKQFCKGCPGRFVYTALNEPTIDYGFQRLQKVIPRHPGDPERLPKEVLLKRAADLAEALYGVPGSNQELLLKRAADVAEALYSTPRAPGPLAPLAPSHPHPAVVGINAFSSPLAIAVGDATPGPEPGYARSCSSASPRGFAPSPGSQQSGYGGGLGAGLGGYGAPGVAGLGVPGSPSFLNGSTATSPFAIMPSSPPLAAASSMSLPAAAPTTSVFSFSPVNMISAVKQRSAFAPVLRPPSSPPQACPRAHGEGLPDQSFEDSDKFHSPARGLQGLAYS
B8: MKL2, Q9ULH7 (protein)
chain: MIDSSKKQQQGFPEILTAGDFEPLKEKECLEGSNQKSLKEVLQLRLQQRRTREQLVDQGIMPPLKSPAAFHEQIKSLERARTENFLKHKIRSRPDRSELVRMHILEETFAEPSLQATQMKLKRARLADDLNEKIAQRPGPMELVEKNILPVDSSVKEAIIGVGKEDYPHTQGDFSFDEDSSDALSPDQPASQESQGSAASPSEPKVSESPSPVTTNTPAQFASVSPTVPEFLKTPPTADQPPPRPAAPVLPTNTVSSAKPGPALVKQSHPKNPNDKHRSKKCKDPKPRVKKLKYHQYIPPDQKGEKNEPQMDSNYARLLQQQQLFLQLQILSQQKQHYNYQTILPAPFKPLNDKNSNSGNSALNNATPNTPRQNTSTPVRKPGPLPSSLDDLKVSELKTELKLRGLPVSGTKPDLIERLKPYQEVNSSGLAAGGIVAVSSSAIVTSNPEVTVALPVTTLHNTVTSSVSTLKAELPPTGTSNATRVENVHSPLPISPSPSEQSSLSTDDTNMADTFTEIMTMMSPSQFLSSSPLRMTNNEDSLSPTSSTLSNLELDAAEKDRKLQEKEKQIEELKRKLEQEQKLVEVLKMQLEVEKRGQQQRPLEAQPSAPGHSVKSDQKHGSLGSSIKDEASLPDCSSSRQPIPVASHAVGQPVSTGGQTLVAKKAVVIKQEVPVGQAEQQSVVSQFYVSSQGQPPPAVVAQPQALLTTQTAQLLLPVSIQGSSVTSVQLPVGSLKLQTSPQAGMQTQPQIATAAQIPTAALASGLAPTVPQTQDTFPQHVLSQPQQVRKVFTNSASSNTVLPYQRHPAPAVQQPFINKASNSVLQSRNAPLPSLQNGPNTPNKPSSPPPPQQFVVQHSLFGSPVAKTKDPPRYEEAIKQTRSTQAPLPEISNAHSQQMDDLFDILIKSGEISLPIKEEPSPISKMRPVTASITTMPVNTVVSRPPPQVQMAPPVSLEPMGSLSASLENQLEAFLDGTLPSANEIPPLQSSSEDREPFSLIEDLQNDLLSHSGMLDHSHSPMETSETQFAAGTPCLSLDLSDSNLDNMEWLDITMPNSSSGLTPLSTTAPSMFSADFLDPQDLPLPWD
B9: ARID4A, P29374 (protein)
chain: MKAADEPAYLTVGTDVSAKYRGAFCEAKIKTVKRLVKVKVLLKQDNTTQLVQDDQVKGPLRVGAIVETRTSDGSFQEAIISKLTDASWYTVVFDDGDERTLRRTSLCLKGERHFAESETLDQLPLTNPEHFGTPVIAKKTNRGRRSSLPVTEDEKEEESSEEEDEDKRRLNDELLGKVVSVVSATERTEWYPALVISPSCNDDITVKKDQCLVRSFIDSKFYSIARKDIKEVDILNLPESELSTKPGLQKASIFLKTRVVPDNWKMDISEILESSSSDDEDGPAEENDEEKEKEAKKTEEEVPEEELDPEERDNFLQQLYKFMEDRGTPINKPPVLGYKDLNLFKLFRLVYHQGGCDNIDSGAVWKQIYMDLGIPILNSAASYNVKTAYRKYLYGFEEYCRSANIQFRTVHHHEPKVKEEKKDLEESMEEALKLDQEMPLTEVKSEPEENIDSNSESEREEIELKSPRGRRRIARDVNSIKKEIEEEKTEDKLKDNDTENKDVDDDYETAEKKENELLLGRKNTPKQKEKKIKKQEDSDKDSDEEEEKSQEREETESKCDSEGEEDEEDMEPCLTGTKVKVKYGRGKTQKIYEASIKSTEIDDGEVLYLVHYYGWNVRYDEWVKADRIIWPLDKGGPKKKQKKKAKNKEDSEKDEKRDEERQKSKRGRPPLKSTLSSNMPYGLSKTANSEGKSDSCSSDSETEDALEKNLINEELSLKDELEKNENLNDDKLDEENPKISAHILKENDRTQMQPLETLKLEVGENEQIVQIFGNKMEKTEEVKKEAEKSPKGKGRRSKTKDLSLEIIKISSFGQNEAGSEPHIEAHSLELSSLDNKNFSSATEDEIDQCVKEKKLKRKILGQSSPEKKIRIENGMEMTNTVSQERTSDCIGSEGMKNLNFEQHFERENEGMPSLIAESNQCIQQLTSERFDSPAEETVNIPLKEDEDAMPLIGPETLVCHEVDLDDLDEKDKTSIEDVAVESSESNSLVSIPPALPPVVQHNFSVASPLTLSQDESRSVKSESDITIEVDSIAEESQEGLCERESANGFETNVASGTCSIIVQERESREKGQKRPSDGNSGLMAKKQKRTPKRTSAAAKNEKNGTGQSSDSEDLPVLDNSSKCTPVKHLNVSKPQKLARSPARISPHIKDGEKDKHREKHPNSSPRTYKWSFQLNELDNMNSTERISFLQEKLQEIRKYYMSLKSEVATIDRRRKRLKKKDREVSHAGASMSSASSDTGMSPSSSSPPQNVLAVECR

The target of this experiment is nucleoprotein N of Crimean-Congo hemorrhagic fever virus. As to the kind of experiment: AlphaScreen luminescence signal relative to Venus negative control (fold); higher = stronger binding to CCHFV N. As for the experimental part: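 AlphaScreen binding of cell-free made, FLAG-GST-tagged human transcription factors and regulators (crude translation products) to biotinylated N protein; signal as fold of the FLAG-GST-Venus control. One pass.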
A general note: Bead proximity is the source of the signal in Alpha formats.
In turn, B1 had an AlphaScreen luminescence signal of 1.44.

B2 gave an AlphaScreen luminescence signal of 5.16.

The molecule B3 gave an AlphaScreen luminescence signal of 2.56.

Regarding B4, the AlphaScreen luminescence signal turned out to be 4.23.

Molecule B5 showed an AlphaScreen luminescence signal of 1.35.

B6 displayed an AlphaScreen luminescence signal of 1.81.

The molecule B7 displayed an AlphaScreen luminescence signal of 2.23.

Turning to B8, the AlphaScreen luminescence signal worked out at 2.47.

As to B9, the AlphaScreen luminescence signal is 1.95.

The values above are taken from the supplement of paper PMC12423691.
